In PubChem BioAssay AID1671188 (National Center for Advancing Translational Sciences (NCATS), 2021):
Values joined by “and” are separate entries in the source; they are usually repeats but may differ in a detail not shown here. Equal entries are not always repeated. The campaign covered roughly 100,000 compounds. About 250 (0.25%) were called active. The inconclusive results got no clear call from the source; some entries with a clear call stand among them for comparison. The call rests on the fitted dose curve; in most records, active means well fitted inhibition curve with a large enough effect; inconclusive means small, poorly fitted or top-dose-only effect; inactive means flat fitted curve, though single readings scatter. Potencies of inconclusive entries are doubtful fits and often do not repeat.
Further: nearly all actives have a fitted effect of over 60% in size.
Potency means the concentration at half of the fitted maximal effect; tags describe the fitted curve by direction and shape.

Each molecule was assayed against Alanine aminotransferase 2 (Homo sapiens) (UniProt Q8TD30) (assay: Primary qHTS assay for inhibitors of Glutamate pyruvate transaminase 2 (GPT2)). Details: Recombinant GPT2, coupled pyruvate oxidase/HRP Amplex Red fluorescence; series mostly up to 57.7 µM.
Sequence of UniProt Q8TD30 (Q8TD30 whole entry, looked up): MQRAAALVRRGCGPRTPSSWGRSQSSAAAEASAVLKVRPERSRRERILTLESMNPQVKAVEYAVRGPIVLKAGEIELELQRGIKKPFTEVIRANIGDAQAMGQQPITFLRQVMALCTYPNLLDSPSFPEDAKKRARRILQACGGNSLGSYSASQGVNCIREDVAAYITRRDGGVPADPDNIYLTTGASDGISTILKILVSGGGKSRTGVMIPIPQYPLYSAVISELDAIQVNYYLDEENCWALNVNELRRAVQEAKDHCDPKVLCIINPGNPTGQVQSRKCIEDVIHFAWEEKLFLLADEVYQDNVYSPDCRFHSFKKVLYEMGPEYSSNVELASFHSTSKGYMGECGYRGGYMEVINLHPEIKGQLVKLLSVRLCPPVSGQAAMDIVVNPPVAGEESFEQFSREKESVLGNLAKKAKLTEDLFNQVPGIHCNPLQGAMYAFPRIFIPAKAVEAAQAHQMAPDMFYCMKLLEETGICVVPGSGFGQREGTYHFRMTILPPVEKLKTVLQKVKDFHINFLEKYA
In short: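 Fluorescence of coupled pyruvate oxidase/HRP/Amplex Red system (50uM Amplex, 30 min, dark) reports pyruvate formed by GPT2. Enzyme reaction: 10ng/uL GPT2, 2mM L-alanine, 250uM a-KG, 30 min room temperature, pH 7.5; 50uM AOA control.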
O=C([C@H]1C[C@H](Oc2ccccc2)CN1C(=O)Cc1ccccc1F)N1CCOCC1 was tested, and the Potency was inconclusive: 39.8 µM [inhibitor, single point].
With O=C(c1ccncc1)N1CC[C@](O)(c2ccccc2)[C@H](N2CCCC2)C1 the Potency was inconclusive: 39.8 µM [inhibitor, single point].
With c1ccc(C(OC2CCN(CCCc3nn[nH]n3)CC2)c2ccccc2)cc1 the Potency was inconclusive: 39.8 µM [inhibitor, single point].
In the case of CCOc1ccccc1CN1CCO[C@@H](COC)[C@@H]1c1ccccc1, the Potency is reported as “inactive”.
In the case of c1ccc2c(c1)OCC(CCn1ccnc1-c1cc3n(n1)CCNC3)O2 (stereo not given), the Potency is reported as inconclusive: 7.08 µM [inhibitor, single point].
In the case of O=C(Cc1c[nH]c2ncc(-c3cccnc3)cc12)NC1CCOCC1, the Potency is reported as “inactive”.
CC(=O)NC(C)c1cnc(-c2cnc(Oc3ccc(OC(C)C)cc3)s2)s1 (stereo not given) was tested, and the Potency was inconclusive: 25.1 µM [inhibitor, single point].
With O=C(NCC1(N2CCN(c3ccccc3)CC2)CCOCC1)c1cccnc1Sc1ccccc1 the Potency was “inactive”.
In the case of Cc1ccc(C(=O)NC2CCCN(c3cc(N(C)C)ncn3)C2)s1 (stereo not given), the Potency is reported as inconclusive: 35.5 µM [inhibitor, single point].
In the case of CC(C)c1ccc(CN2CC(COc3ccccc3)C3(C2)CN(C(=O)c2cn[nH]c2)C3)cc1 (stereo not given), the Potency is reported as inconclusive: 39.8 µM [inhibitor, single point].
With COc1ccc(CC(=O)NC2CCN(c3cc(-c4ccc(OC)cc4)[nH]n3)CC2)cc1 the Potency was “inactive”.
For CCC1=Nc2cc(C(=O)NCc3ccc(F)cc3)ccc2Sc2ccc(C)cc21, the Potency was inconclusive: 39.8 µM [inhibitor, single point].
For Oc1ccc2ccccc2c1SSc1c(O)ccc2ccccc12, the Potency was inconclusive: 4.32 µM [inhibitor, full curve, poor fit] and inconclusive: 39.8 µM [inhibitor, single point].
For Cc1n[nH]c(C)c1CN1CCC2(CC1)CCN(C1CCOCC1)CC2CO (stereo not given), the Potency was inconclusive: 3.16 µM [inhibitor, partial curve, poor fit].
With CCCCc1nc2cc(/C=C/C(=O)NO)ccc2n1CCN(CC)CC the Potency was inconclusive: 31.6 µM [inhibitor, single point].
With COc1ccc(-c2cc(N3CCC(NC(=O)c4ccc(N(C)C)cc4)CC3)n[nH]2)cc1 the Potency was “inactive”.
For O=C(c1ccccc1F)N1CCC2(CC1)CCN(CCc1ccccc1)c1ccccc1O2, the Potency was inconclusive: 39.8 µM [inhibitor, single point].
With COc1cccc(N2C(=O)NC(=NC3CCCCC3)C23CCN(Cc2ccc(N(C)C)cc2)CC3)c1 the Potency was “inactive”.
Cc1cnc(C(=O)NC2C[C@H]3CC[C@@H](C2)N3C(=O)c2ccc(OC(F)(F)F)cc2)cn1 (stereo not given in full) was tested, and the Potency was inconclusive: 39.8 µM [inhibitor, single point].
O=C(NCc1ccccc1)c1ccccc1OC1CN(Cc2ccncc2)C1 was tested, and the Potency was “inactive”.
In the case of CCOc1ccc(NC(=O)c2nnn3cc(C)[nH]c(=O)c23)cc1, the Potency is reported as “inactive”.
With O=C1c2cnc(-c3ccsc3)nc2OCCN1CC1CC1 the Potency was inconclusive: 39.8 µM [inhibitor, single point].
In the case of COc1ccc(CC(=O)N[C@@H]2COCC[C@H]2OCc2ccccn2)cc1, the Potency is reported as inconclusive: 0.708 µM [inhibitor, full curve, poor fit].
CCN1CCN(CC(=O)Nc2ccc(-c3cccc4c(=O)cc(N5CCOCC5)oc34)c3sc4ccccc4c23)CC1 was tested, and the Potency was inconclusive: 15.3 µM [inhibitor, single point].
O=C(CCn1ccn2nc3c(c2c1=O)CCCC3)NCc1ccc(F)cc1 was tested, and the Potency was inconclusive: 2.51 µM [inhibitor, partial curve, poor fit].
In the case of CCc1csc(CNC2CCC3(CCNCC3)CC2)n1, the Potency is reported as inconclusive: 1.58 µM [inhibitor, partial curve, poor fit].
Cc1ccc(C2NC(=O)N(CC(=O)NC(C)CCc3ccccc3)C3=C2C(=O)OC3)cc1 (stereo not given) was tested, and the Potency was “inactive”.
For O=C1CC(c2noc(-c3ccccc3F)n2)CN1C1CCCCC1 (stereo not given), the Potency was inconclusive: 39.8 µM [inhibitor, partial curve, poor fit].
In the case of N#CSc1cc(SC#N)c(N)nc1N, the Potency is reported as inconclusive: 7.94 µM [inhibitor, single point].
Cc1ccc2c(n1)OC(COc1ccccc1)CN(Cc1cccs1)C2=O (stereo not given) was tested, and the Potency was “inactive”.
For CCc1ccc2nc(C)cc(C(=O)N3CCN(c4ccccc4)C(=O)C3)c2c1, the Potency was inconclusive: 7.08 µM [inhibitor, single point].
In the case of Cc1nc(C)c(C(=O)N[C@@H]2CN(Cc3ccncc3)C[C@H]2CN(C)C)s1, the Potency is reported as inconclusive: 10 µM [inhibitor, partial curve].
CC1CCC(NC(=O)c2nnn3c2COC(c2ccc(F)cc2)C3)CC1 (stereo not given) was tested, and the Potency was inconclusive: 2.82 µM [inhibitor, partial curve, poor fit].
In the case of O=[S+]1([O-])CCN(Cc2ccc(-c3cnc4c(OCc5ccccc5)nccn34)cc2)CC1, the Potency is reported as inconclusive: 39.8 µM [inhibitor, single point].
In the case of Cc1nc([C@@H]2CN(Cc3ccc(C(F)(F)F)cc3)C[C@H]2C(N)=O)n[nH]1, the Potency is reported as inconclusive: 25.1 µM [inhibitor, single point].
CCC1=NOC(Cn2c(=O)n(CCc3ccccn3)c3ncc(C(=O)O)cc32)C1 (stereo not given) was tested, and the Potency was inconclusive: 6.31 µM [inhibitor, single point].
In the case of COc1ccc(-c2ccc(-c3nc(CC(C)C)no3)cn2)c2cccnc12, the Potency is reported as inconclusive: 39.8 µM [inhibitor, single point].
With O=C(CCn1cnnn1)N1CC(c2noc(C3CCCN3CC3CC3)n2)C1 (stereo not given) the Potency was “inactive”.
With c1ccc(-c2nc(C3CCOCC3)nn2CC2COCCO2)cc1 (stereo not given) the Potency was inconclusive: 3.98 µM [inhibitor, single point].
COc1ccc(-c2cc(C(=O)NCCc3ccccc3F)c3cnn(C)c3n2)cc1 was tested, and the Potency was inconclusive: 6.31 µM [inhibitor, single point].
O=C(O)c1cc(C(F)(F)F)ccc1N1CC[C@H](OCc2ccccn2)C1 was tested, and the Potency was inconclusive: 3.16 µM [inhibitor, partial curve, poor fit].
In the case of NCCCC(=O)N1CCCC2(Cc3ccccc3CN2C(=O)Cc2cccc(Cl)c2)C1 (stereo not given), the Potency is reported as inconclusive: 39.8 µM [inhibitor, single point].
In the case of COc1ccc(NC(=O)N2c3ccccc3CC2c2nc(C3CC3)no2)c(OC)c1 (stereo not given), the Potency is reported as “inactive”.
CN1CCN(c2ccc3ncc(Nc4ccc5c(c4)OCCO5)n3n2)CC1 was tested, and the Potency was “inactive”.
CCOc1ccc(-c2cc3c(=O)n(CCNC(=O)C4(c5ccccc5)CC4)ccn3n2)cc1 was tested, and the Potency was “inactive”.
CC1c2ccccc2CN1NC(=O)c1ccc(Cl)c(S(N)(=O)=O)c1 (stereo not given) was tested, and the Potency was inconclusive: 39.8 µM [inhibitor, single point].
With Cc1ccc(-c2nc3cnccn3c2NCCC(=O)NCc2ccco2)cc1 the Potency was inconclusive: 39.8 µM [inhibitor, single point].
For CN1C[C@@H](NC(=O)Nc2ccc(C(F)(F)F)cc2)C[C@H]1c1nc(-c2ccc(Cl)cc2)no1, the Potency was “inactive”.
With COC[C@@H]1[C@H](NC(=O)c2cc(-c3cccn3C)n[nH]2)[C@@H]2CCO[C@H]12 the Potency was “inactive”.
CS(=O)(=O)N[C@@H]1[C@@H](NC(=O)c2cn3ccsc3n2)[C@H]2CCO[C@H]21 was tested, and the Potency was “inactive”.
C/C=C/C=C/C(=O)OC1CC/C=C/C(O)C(O)C(CCC)OC1=O (stereo not given) was tested, and the Potency was “inactive”.
With CN(C1CCOCC1)C1CCN(C(=O)c2cccnc2)CC1 the Potency was inconclusive: 39.8 µM [inhibitor, partial curve, poor fit].
For CCc1cc(N2CCCC(C(=O)c3sccc3C)C2)ncn1 (stereo not given), the Potency was “inactive”.
With CCC(=O)NCc1ccccc1-c1ccnc(C)c1 the Potency was inconclusive: 20 µM [inhibitor, single point].
In the case of COc1ccc(C(=O)N2CCc3nnc([C@@H]4C[C@@H](O)CN4C(C)C)n3CC2)cn1, the Potency is reported as inconclusive: 39.8 µM [inhibitor, single point].
Cc1ccsc1[C@@H]1CCN(Cc2cn[nH]c2-c2ccc(F)cc2)C[C@H]1O was tested, and the Potency was inconclusive: 39.8 µM [inhibitor, single point].
For COC(=O)c1cccc(OCCn2ccnc2-c2nc[nH]c2C)c1, the Potency was inconclusive: 39.8 µM [inhibitor, partial curve, poor fit].
In the case of COCCNC(=O)C(C)(C)Oc1nn(Cc2cccc(Cl)c2)c2ccccc12, the Potency is reported as inconclusive: 35.5 µM [inhibitor, single point].
In the case of C=CC(=O)Nc1cccc(Nc2nc(Nc3ccc(Oc4ccnc(C(=O)NC)c4)cc3)ncc2F)c1, the Potency is reported as inconclusive: 39.8 µM [inhibitor, single point].
CCNC(=O)Nc1ccc2c(c1)CN(Cc1ccc(Cl)cc1)C(=O)C(C)O2 (stereo not given) was tested, and the Potency was “inactive”.
With COc1ccc(N2CC(C(=O)N3CCC(C(=O)NC(C)C)C3)NC2=O)cc1 (stereo not given) the Potency was inconclusive: 6.31 µM [inhibitor, single point].
In the case of Cc1cccc(CNC(=O)C2CC(c3ccc(F)c(C)c3)CN(C(=O)c3ccccc3)C2)c1 (stereo not given), the Potency is reported as “inactive”.
With Cc1ccccc1C(=O)N1CCC2(CC1)NC(=O)N(c1ccccc1)N2 the Potency was inconclusive: 28.2 µM [inhibitor, single point].
O=C(c1ccc(F)cc1Cl)N1CCC2(CC1)NC(=O)N(c1ccccc1Cl)N2 was tested, and the Potency was inconclusive: 25.1 µM [inhibitor, partial curve].
c1ccc(-c2cn([C@H]3CO[C@H]4[C@@H]3OC[C@@H]4NCC3CCCCC3)nn2)nc1 was tested, and the Potency was inconclusive: 11.2 µM [inhibitor, single point].
